Molecules are shown by their SMILES. Out of some 52,000 compounds screened, about 4,300 (8.3%) were called active. Rule as the data show it: active = survival mostly below about 52% (no sharp cut-off); inactive = mostly above about 56%. This is one part of the list.

For the test, the system named is DeltatarO mutant. Briefly: S. aureus survival, RN4220 and DeltatarO strains – OD600, teichoic acid synthesis inhibitors, primary screen (AID 463173). The conditions noted are these: S. aureus RN4220 wild type/DeltatarO growth, OD600, 18 h, hits give low values, screened at 18.75 µg/mL (by protocol).
On to `O=C(O)C1=NN(c2ccccc2)C(=O)C1`, for which the survival was inactive: 78%.

For `CN(C)c1cccc(C(=O)N2CCC(c3c[nH]c4ccccc34)(c3c[nH]c4ccccc34)CC2)c1`, the survival is inactive: 101%.

For the molecule `Cc1cccc(CNC(=O)c2ccc(N3Cc4ccccc4Oc4ncccc43)s2)c1`, the survival was inactive: 84%.

On to `COc1cccc(C(=O)N2CCC(C(=O)Nc3cccc(Cl)c3)CC2)c1`, for which the survival is inactive: 53%.

For the molecule `CCC1Oc2ccc(C)cc2N(CC(=O)N(Cc2ccc3c(c2)OCO3)CC2CCCO2)C1=O` (stereo not given), the survival was inactive: 96%.

In the case of `COc1cc(C(=O)Nc2ccc(NC(=O)c3ccc(C(C)(C)C)cc3)cc2)cc(OC)c1OC`, the survival is inactive: 132%.

Regarding `O=C(COCc1cc(-c2cccs2)on1)N1CCN(c2ccccc2)CC1`, the survival is inactive: 72%.

For the molecule `CCOc1ccc(CNC(=O)C2CCN(c3nnc(-n4c(C)ccc4C)s3)CC2)cc1`, the survival is inactive: 70%.

Turning to `Cc1ccc(NC(=O)c2oc3ccccc3c2NC(=O)Cc2ccccc2)cc1`, the survival is inactive: 85%.

Turning to `CCOc1ccc(S(=O)(=O)N2CCN(c3cccc(C(F)(F)F)c3)CC2)cc1OCC`, the survival was inactive: 59%.

As for `COc1ccccc1NC(=O)CSC1=Nc2ccccc2C2=NC(Cc3ccccc3)C(=O)N12` (stereo not given), the survival is inactive: 124%.

As to `O=C(OCCCN1CCOCC1)c1ccc(O)cc1O`, the survival was inactive: 92%.

On to `CCN(CC)CCNC(=O)C(=O)NCC(c1ccc2c(c1)OCO2)N1CCOCC1` (stereo not given), for which the survival was inactive: 115%.

On to `O=C(CSc1cn(CC(=O)N2CCCCC2)c2ccccc12)NCc1ccccc1`, for which the survival was inactive: 87%.

For the molecule `CCOc1ccc(-c2nnc(SCC(=O)NCc3ccccc3Cl)o2)cc1`, the survival was inactive: 81%.

As for `CCOC(=O)C1CC1c1ccccc1` (stereo not given), the survival was inactive: 81%.

For `O=C(NCc1ccccc1)C(=O)NCC(c1ccco1)S(=O)(=O)c1ccc(Cl)cc1` (stereo not given), the survival was inactive: 89%.

In the case of `CN(C)c1nc(C2CC2)nc2c1nnn2Cc1ccccc1Cl`, the survival is inactive: 106%.

In the case of `COc1ccccc1-c1nnc(C2CCN(C(=O)c3cccc(C)c3)CC2)o1`, the survival was inactive: 88%.

Regarding `COc1cccc(Cn2c(=O)n(-c3cccc(Cl)c3)c(=O)c3c4c(sc32)CN(C(C)=O)CC4)c1`, the survival is inactive: 59%.

With `C=CCC(CC=C)(CNC(=O)C(=O)Nc1ccc(C)cc1)c1ccccc1`, the survival was inactive: 77%.

For `CCOc1cc(OCC)cc(C(=O)Nc2cccc(-c3nc4ccccc4[nH]3)c2)c1`, the survival was active: 36%.

Turning to `CCOc1ccc(NC(=O)CN2CCN(S(=O)(=O)c3ccc(OC)cc3)CC2)cc1`, the survival was inactive: 81%.

Take `CC(C)(O)C1Cc2cc3ccc(=O)oc3cc2O1` (stereo not given): the survival was inactive: 80%.

Turning to `CCc1nc2c(cnn2-c2ccc(C)cc2)c(=O)n1Cc1ccccc1`, the survival is inactive: 51%.

`COc1ccc(Cl)cc1C(=O)NCc1ccco1`: the survival is inactive: 81%.

On to `Cc1cc(C)c(S(=O)(=O)NCC(c2ccco2)N2CCOCC2)c(C)c1` (stereo not given), for which the survival was inactive: 89%.

In the case of `CCOC(=O)N1CCc2c(sc3c2c(=O)n(Cc2ccccc2)c(=O)n3Cc2cccc(C)c2)C1`, the survival was inactive: 83%.

As to `Cc1ccc(-c2onc(C)c2C)cc1S(=O)(=O)NCc1ccc(N(C)C)cc1`, the survival was active: -2%.

As for `CCc1ccc(NC(=O)Cn2c(=O)n(CCCCC(=O)NCc3ccccc3Cl)c(=O)c3ccccc32)cc1`, the survival was inactive: 90%.

`COc1cc2nc(NC(=O)c3ccccc3)[nH]c(=O)c2cc1OC`: the survival is inactive: 90%.

Consider `Cc1cc(C)cc(-n2cnc3cc(C(=O)NC4CCCCCC4)ccc32)c1`, for which the survival is inactive: 95%.

For the molecule `Cc1ccc(CCNC(=O)c2ccc3[nH]c(C)c(C)c3c2)cc1`, the survival is inactive: 116%.

With `COc1ccc(CCNC(=O)c2cc3n(n2)CCCN(Cc2ccc(C)cc2)C3=O)cc1OC`, the survival is inactive: 83%.

In the case of `Cc1c2cnn(CC(=O)N3CCN(c4ccccc4)CC3)c(=O)c2c(C)n1Cc1ccccc1Cl`, the survival is inactive: 78%.

As to `CCCCN(C)CCCNC(=O)C1CCN(S(=O)(=O)CC)CC1`, the survival is inactive: 108%.

Turning to `CSc1ncc(Cl)c(C(=O)Nc2ccc(S(=O)(=O)Nc3nccc(C)n3)cc2)n1`, the survival is inactive: 81%.

Turning to `CC(=O)c1ccc(NC(=O)CCc2c(C)nc3c(c2C)c(=O)n(C)c(=O)n3C)cc1`, the survival is inactive: 101%.

With `CC(=O)C1=C(c2ccccc2)N(C(C)=O)n2c(nnc2C2CCCCC2)S1`, the survival is inactive: 134%.

In the case of `CCCCN(C)CCCNC(=O)CN1N=C(c2ccc(OC)cc2)CCC1=O`, the survival is inactive: 67%.

Consider `COc1ccc(-n2nc3cc(C)c(NC(=O)c4ccc(-c5ccc(Br)cc5)o4)cc3n2)cc1`, for which the survival is active: 37%.

For the molecule `COc1cc(OC)cc(C(=O)Nc2cc3c(cc2N2CCOCC2)n(C)c(=O)n3C)c1`, the survival was inactive: 83%.

As for `Cc1cc(C)n(CCc2nc3c4ccccc4nc(N4CCN(c5cccc(C)c5C)CC4)n3n2)n1`, the survival was inactive: 86%.

Regarding `CC(=O)c1cccc(-n2c(=O)c3c4c(sc3n(Cc3cccc(C)c3)c2=O)CN(C(C)=O)CC4)c1`, the survival is inactive: 89%.

For `Cc1cccc(NC(=O)CN2C(=O)C(c3ccccc3)=NC23CCC(C)CC3)c1` (stereo not given), the survival is inactive: 77%.

Regarding `O=C(NCc1ccccc1F)c1sc2ncccc2c1-n1cccc1`, the survival is inactive: 83%.

As to `CCn1cc2nc(SCC(=O)Nc3ccc(C)cc3)n(Cc3ccc(C)cc3)c(=O)c2n1`, the survival is inactive: 69%.

`CCN(CC)c1ccc(NC(=O)CN2CCN(c3ccccc3F)CC2)cc1`: the survival was inactive: 75%.

Turning to `COC(=O)CN1C(=O)C(C)(C)c2cc(S(=O)(=O)Nc3ccc(Br)cc3F)ccc21`, the survival is inactive: 90%.

`Cc1[nH]c2ccc(Br)cc2c1CCNC(=O)c1cc2ccccc2oc1=O`: the survival is active: 32%.

In the case of `CCOc1ccc(C2=NC(c3cccs3)=Nc3ccc(CC)cc3N2)cc1OCC`, the survival was inactive: 77%.

In the case of `O=S(=O)(NCCS(=O)(=O)N1CCN(c2cccc(Cl)c2)CC1)c1ccc(F)cc1`, the survival was inactive: 83%.

As to `O=C(CSCc1ccccc1)Nc1nccs1`, the survival was inactive: 77%.

Take `COc1ccccc1NC(=O)C1=C(C)Nc2nc(SCc3ccccc3)nn2C1c1cccc(O)c1` (stereo not given): the survival was inactive: 49%.

With `COCCn1c(CNC(=O)c2cccc(C)c2)nc2cccnc21`, the survival was inactive: 95%.

On to `COCCNC(=O)C1CCN(Cc2cc3ccccc3n2Cc2ccc(C)cc2)CC1`, for which the survival was inactive: 99%.

In the case of `COc1cc(NC(=O)C2CCN(S(=O)(=O)Cc3ccccc3)CC2)c(OC)cc1Cl`, the survival was inactive: 74%.

Regarding `CCC(C)n1c(=O)c2sccc2n2c(CCCC(=O)NCc3ccccc3Cl)nnc12` (stereo not given), the survival is inactive: 95%.

Regarding `Cc1ccc(C(=O)c2sc(Nc3ccccc3)c(S(=O)(=O)c3ccccc3)c2N)c(C)c1`, the survival was inactive: 79%.

`Cc1cccc(N(C)S(=O)(=O)c2nnc(NC(=O)c3cccs3)s2)c1`: the survival is active: 26%.

As for `Cc1cc(C)n2nc(CNC(=O)c3c(F)cccc3F)nc2n1`, the survival was inactive: 81%.

On to `COc1ccc(NC(=O)c2nnn(Cc3nc(-c4cc(OC)c(OC)c(OC)c4)oc3C)c2C)cc1Cl`, for which the survival is inactive: 140%.

Turning to `O=C(COc1ccc(F)cc1)Nc1nnc(S(=O)(=O)N2CCCC2)s1`, the survival was active: 39%.

Turning to `CCCCNC(=O)C(CC)Sc1nc2ccccc2c(=O)n1Cc1ccco1` (stereo not given), the survival is inactive: 75%.

Turning to `COCCCNC(=O)Cn1c(=O)n(-c2ccc(C)c(C)c2)c(=O)c2c3c(sc21)CCCCC3`, the survival was inactive: 80%.

With `CCCCOc1ccc(C(=O)N2CCCCC2CCN2CCOCC2)cc1` (stereo not given), the survival was inactive: 84%.

As to `CC1CCC(NC(=O)c2ccc(CS(=O)(=O)c3ccc(Cl)cc3)o2)CC1` (stereo not given), the survival was inactive: 86%.

Take `Nn1c(Cc2ccccc2)nc2cc(Cl)ccc2c1=O`: the survival is inactive: 72%.

Consider `CCN(CC)S(=O)(=O)c1ccc(C(=O)NCCSc2c(-c3ccc(F)cc3)[nH]c3ccccc23)cc1`, for which the survival is inactive: 69%.

As to `Cc1ccc(-c2cn3cccnc3n2)cc1NC(=O)Nc1ccc(F)cc1`, the survival is inactive: 152%.

Consider `Cc1ccc(S(=O)(=O)NNC(=S)NCC2CCCO2)cc1` (stereo not given), for which the survival was inactive: 69%.

For the molecule `COc1ccc2c(c1)c(=O)c(S(=O)(=O)c1ccc(F)cc1)cn2Cc1ccccc1Cl`, the survival was inactive: 68%.

Consider `CC(C)(C)OC(=O)N1CCC(c2c(C(=O)N3CCN(c4ccccn4)CC3)cnn2-c2ccc(F)cc2)CC1`, for which the survival is inactive: 88%.

Turning to `O=C(Cn1ncc2c1-c1ccccc1OC2)N1CCN(c2ccccc2)CC1`, the survival was inactive: 68%.

On to `COCCNC(=O)CN1C(=O)c2cccnc2Sc2ccccc21`, for which the survival is inactive: 91%.

Consider `COc1cccc2c(C)cc3nnc(SCC(=O)Nc4ccc(C)cc4)n3c12`, for which the survival is inactive: 53%.

As for `O=C(c1ccc2c(c1)OCO2)c1cn(Cc2ccc(Cl)cc2)c2ccc(F)cc2c1=O`, the survival was active: 55%.

On to `O=C(Cn1cc(SCc2c(F)cccc2Cl)c2ccccc21)N1CCCCC1`, for which the survival was inactive: 61%.

For the molecule `CCOc1nc(Nc2ccccc2)nc(OCC)n1`, the survival was inactive: 115%.

Consider `Cn1c(=O)n(Cc2ccccc2)c(=O)c2c1nc1n2CCN1c1ccccc1`, for which the survival was inactive: 81%.

As to `CCN(CC)CCNC(=O)CN1N=C(c2ccc(OC)cc2)CCC1=O`, the survival is inactive: 68%.

In the case of `Cc1cccn2cc(-c3cccc(NC(=O)C(C)C)c3)nc12`, the survival was inactive: 59%.

`CC(=O)c1ccc(NC(=O)CSc2nc(-c3ccc(C)cc3)nc3c2c(=O)n(C)c(=O)n3C)cc1`: the survival is inactive: 101%.

On to `CCn1c(=O)cc(OCC(=O)N2CCN(c3ccc(C)cc3)C(C)C2)c2ccccc21` (stereo not given), for which the survival is inactive: 46%.

With `CCC(=O)Nc1ccc2nc(SCCOc3ccc(C)cc3OC)sc2c1`, the survival was inactive: 67%.

Regarding `COc1ccc(CNC(=O)c2cnc(N(C)C)nc2)cc1`, the survival was inactive: 73%.

Regarding `CCCOc1cccc(C(=O)N(Cc2sccc2C)C2CCS(=O)(=O)C2)c1` (stereo not given), the survival is inactive: 110%.

For `CC(C)OCCCNC(=O)CN1C(=O)c2cccnc2Sc2ccccc21`, the survival is inactive: 76%.

Take `CCOc1ccc(C(=O)N2CCc3cc(OC)c(OC)cc3C2COc2ccc3c(C)cc(=O)oc3c2)cc1OCC` (stereo not given): the survival is inactive: 57%.

Take `O=C(N1CCC(n2cnc3cccnc32)CC1)N1c2ccccc2Sc2ccccc21`: the survival is inactive: 91%.

(Values after PubChem BioAssay AID463173 (ICCB-Longwood Screening Facility, Harvard Medical School, 2010).)
